Experimental data: patent US20240076345A1 (SUZHOU ALPHAMAB, published 2024)
Changes are numbered by the printed parent chain. Names may count otherwise.

T1: GLP1R-muFc (human)
T1 construct: also called fusion protein of the GLP-1 receptor and mouse Fc; GLP-1 receptor
T1 chain: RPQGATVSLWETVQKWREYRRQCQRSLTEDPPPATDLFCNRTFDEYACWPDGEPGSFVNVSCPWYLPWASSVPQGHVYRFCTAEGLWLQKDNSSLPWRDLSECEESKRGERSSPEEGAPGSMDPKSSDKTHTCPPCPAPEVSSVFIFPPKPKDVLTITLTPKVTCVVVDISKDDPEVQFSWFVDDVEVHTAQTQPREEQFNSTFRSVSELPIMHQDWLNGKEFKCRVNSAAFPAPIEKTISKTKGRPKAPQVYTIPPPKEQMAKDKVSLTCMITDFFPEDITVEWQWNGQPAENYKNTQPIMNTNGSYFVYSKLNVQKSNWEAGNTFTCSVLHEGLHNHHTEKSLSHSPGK

B1: dulaglutide (Fc fusion)
chain: HGEGTFTSDVSSYLEEQAAKEFIAWLVKGGGGGGGSGGGGSGGGGSA[here human IgG4 Fc with S228P F234A L235A (EU numbers) without letters]
notes: also called KN042; GLP-1-Fc
B2: GM-FY (Fc fusion)
chain: B1 chain with F22Y
notes: also called F28Y
B3: GM-WYFL (Fc fusion)
chain: B1 chain with F22L, W25Y
notes: also called W31Y, F28L
B4: GM-WLFL (Fc fusion)
chain: B1 chain with F22L, W25L
notes: also called W31L, F28L
B5: GM-KRYS (Fc fusion)
chain: B1 chain with Y13S, K20R
notes: also called K26R-Y19S
B6: GM-WY (Fc fusion)
chain: B1 chain with W25Y
notes: also called W31Y
B7: GM-WYYS (Fc fusion)
chain: B1 chain with Y13S, W25Y
notes: also called W31Y-Y19S
B8: GM-KRWYYS (Fc fusion)
chain: B1 chain with Y13S, K20R, W25Y
notes: also called W31Y-K26R-Y19S
B9: GM-KRYA (Fc fusion)
chain: B1 chain with Y13A, K20R
notes: also called K26R-Y19A
B10: GM-WA (Fc fusion)
chain: B1 chain with W25A
notes: also called W31A
B11: GM-YL (Fc fusion)
chain: B1 chain with Y13L
notes: also called Y19L
B12: GM-KRWYYV (Fc fusion)
chain: B1 chain with Y13V, K20R, W25Y
notes: also called W31Y-K26R-Y19V
B13: GM-YV (Fc fusion)
chain: B1 chain with Y13V
notes: also called Y19V
B14: GM-YS (Fc fusion)
chain: B1 chain with Y13S
notes: also called Y19S
B15: GM-KRWYQS (Fc fusion)
chain: B1 chain with Q17S, K20R, W25Y
notes: also called W31Y-K26R-Q23S
B16: GM-YA (Fc fusion)
chain: B1 chain with Y13A
notes: also called Y19A
B17: GM-KRWYQT (Fc fusion)
chain: B1 chain with Q17T, K20R, W25Y
notes: also called W31Y-K26R-Q23T
B18: GM-KRWYYL (Fc fusion)
chain: B1 chain with Y13L, K20R, W25Y
notes: also called W31Y-K26R-Y19L
B19: GM-KRQE (Fc fusion)
chain: B1 chain with Q17E, K20R
notes: also called K26R-Q23E
B20: GM-KRYI (Fc fusion)
chain: B1 chain with Y13I, K20R
notes: also called K26R-Y19I; K26R-Y191
B21: GM-WYYF (Fc fusion)
chain: B1 chain with Y13F, W25Y
notes: also called W31Y-Y19F
B22: GM-WYYI (Fc fusion)
chain: B1 chain with Y13I, W25Y
notes: also called W31Y-Y19I
B23: GM-WL (Fc fusion)
chain: B1 chain with W25L
notes: also called W31L
B24: GM-KRFY (Fc fusion)
chain: B1 chain with K20R, F22Y
notes: also called K26R-F28Y
B25: GM-WYYL (Fc fusion)
chain: B1 chain with Y13L, W25Y
notes: also called W31Y-Y19L
B26: GM-KRWYYF (Fc fusion)
chain: B1 chain with Y13F, K20R, W25Y
notes: also called W31Y-K26R-Y19F
B27: GM-KRWYYT (Fc fusion)
chain: B1 chain with Y13T, K20R, W25Y
notes: also called W31Y-K26R-Y19T
B28: GM-KRWYQN (Fc fusion)
chain: B1 chain with Q17N, K20R, W25Y
notes: also called W31Y-K26R-Q23N
B29: GM-KRYV (Fc fusion)
chain: B1 chain with Y13V, K20R
notes: also called K26R-Y19V
B30: GM-YT (Fc fusion)
chain: B1 chain with Y13T
notes: also called Y19T
B31: GM-KRWYQE (Fc fusion)
chain: B1 chain with Q17E, K20R, W25Y
notes: also called W31Y-K26R-Q23E
B32: GM-KRWYYA (Fc fusion)
chain: B1 chain with Y13A, K20R, W25Y
notes: also called W31Y-K26R-Y19A
B33: GM-WYQE (Fc fusion)
chain: B1 chain with Q17E, W25Y
notes: also called W31Y-Q23E
B34: GM-KRWYYI (Fc fusion)
chain: B1 chain with Y13I, K20R, W25Y
notes: also called W31Y-K26R-Y19I
B35: GM-QE (Fc fusion)
chain: B1 chain with Q17E
notes: also called Q23E
B36: GM-YI (Fc fusion)
chain: B1 chain with Y13I
notes: also called Y19I
B37: GM-WIFL (Fc fusion)
chain: B1 chain with F22L, W25I
notes: also called W31I, F28L
B38: GM-WYYT (Fc fusion)
chain: B1 chain with Y13T, W25Y
notes: also called W31Y-Y19T
B39: GM-WYYV (Fc fusion)
chain: B1 chain with Y13V, W25Y
notes: also called W31Y-Y19V

Molecular target: T1, GLP1R-muFc
Test: ELISA on coated GLP1R-muFc
Description: The binding affinities of the fusion proteins of Example 1 for the GLP-1 receptor were measured by ELISA. A fusion protein of the GLP-1 receptor and mouse Fc was expressed, and the fusion protein was referred to as GLP1R-muFc (SEQ ID NO: 3). GLP1R-muFc was diluted to 5 μg/mL and used to coat a 96-well plate; it was fixed at room temperature for 30 min. The plate was washed with PBS once, then blocked with 1% BSA at 37° C. for 30 min, and washed with 0.05% PBST20 three times. Test samples (4-fold serial dilutions, 10 μg/mL) were added at 50 μL/well. KN042 was used as a positive control. The plate was incubated at 37° C. for 1 h and washed with PBST five times. Mouse monoclonal HP6023 anti-human IgG4Fc-HRP (abcam, ab99817, 2000-fold diluted with 0.05% PBST20 containing 1% BSA) was added at 50 μL/well. The plate was incubated at 37° C. for 1 h and washed with PBST five times. To each well was added 50 μL of TMB, and color development was allowed for 3 min. To each well was added 50 μL of 1 M H2SO4 to stop the reaction. The OD values were measured on a microplate reader (Molecular Devices, SpectraMax M3). KN042 was used as a positive control.

Binder | binding result
B1 | binds
B2 | binds
B3 | binds
B4 | binds
B5 | binds
B6 | binds
B7 | binds
B8 | binds
B9 | binds
B10 | binds
B11 | binds
B12 | binds
B13 | binds
B14 | binds
B15 | binds
B16 | binds
B17 | binds
B18 | binds
B19 | binds
B20 | binds

Binder | binding result
B21 | binds
B22 | binds
B23 | binds
B24 | binds
B25 | binds
B26 | binds
B27 | binds
B28 | binds
B29 | binds
B30 | binds
B31 | binds
B32 | binds
B33 | binds
B34 | binds
B35 | binds
B36 | binds
B37 | binds
B38 | binds
B39 | binds
